These are yes or no findings as the source states them, for the method shown. Some binding calls cover weakened binding; strength is not graded here. One block for each molecule: values may come before it.
How the values were obtained:
Assay in all cases: two-hybrid; … GAL4 Two-Hybrid System 3 (pGBKT7 bait, pGADT7 prey) in AH109 yeast; colonies from -Leu/-Trp plates streaked on high stringency -Ade/-His/-Leu/-Trp plates, 30 °C for up to 5 days, scored for growth
[1] = molecular target: T1, Drosophila Lamin C (Drosophila melanogaster) (UniProt Q03427)
T1 sequence: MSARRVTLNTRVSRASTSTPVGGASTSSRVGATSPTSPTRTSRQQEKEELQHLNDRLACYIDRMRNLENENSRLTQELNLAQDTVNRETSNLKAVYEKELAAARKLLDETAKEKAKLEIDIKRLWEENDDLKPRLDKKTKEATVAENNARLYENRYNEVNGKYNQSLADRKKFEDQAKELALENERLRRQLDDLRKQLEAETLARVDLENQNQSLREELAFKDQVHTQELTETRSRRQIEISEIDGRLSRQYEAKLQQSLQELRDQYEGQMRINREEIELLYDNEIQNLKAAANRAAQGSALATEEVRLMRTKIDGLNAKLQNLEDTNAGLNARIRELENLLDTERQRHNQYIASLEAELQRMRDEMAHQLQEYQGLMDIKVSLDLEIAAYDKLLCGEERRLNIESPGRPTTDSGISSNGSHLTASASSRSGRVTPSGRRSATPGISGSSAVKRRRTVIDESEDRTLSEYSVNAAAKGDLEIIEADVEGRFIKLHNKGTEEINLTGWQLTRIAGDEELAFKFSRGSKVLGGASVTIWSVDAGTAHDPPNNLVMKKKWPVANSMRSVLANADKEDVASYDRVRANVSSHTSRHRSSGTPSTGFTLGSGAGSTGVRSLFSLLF

[2] = molecular target: T2, Drosophila lamin Dm0 (Drosophila melanogaster) (UniProt P08928)
T2 sequence: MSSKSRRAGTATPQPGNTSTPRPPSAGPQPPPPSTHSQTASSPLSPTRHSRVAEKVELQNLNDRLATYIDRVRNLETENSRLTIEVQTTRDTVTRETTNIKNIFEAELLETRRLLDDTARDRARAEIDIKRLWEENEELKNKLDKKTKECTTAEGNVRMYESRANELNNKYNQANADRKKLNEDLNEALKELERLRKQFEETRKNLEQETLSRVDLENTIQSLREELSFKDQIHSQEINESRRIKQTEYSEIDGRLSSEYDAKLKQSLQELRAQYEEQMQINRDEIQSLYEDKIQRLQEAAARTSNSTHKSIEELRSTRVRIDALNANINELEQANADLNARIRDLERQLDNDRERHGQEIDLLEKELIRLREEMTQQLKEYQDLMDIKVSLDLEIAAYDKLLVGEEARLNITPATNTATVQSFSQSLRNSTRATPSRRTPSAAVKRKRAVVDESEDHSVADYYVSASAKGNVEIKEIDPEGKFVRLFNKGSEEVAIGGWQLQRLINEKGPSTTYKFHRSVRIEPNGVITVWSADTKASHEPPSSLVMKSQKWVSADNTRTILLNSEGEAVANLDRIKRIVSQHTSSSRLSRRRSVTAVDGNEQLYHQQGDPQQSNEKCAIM

human emerin (human) = molecular target: T3, human emerin (human) (UniProt P50402)
T3 sequence: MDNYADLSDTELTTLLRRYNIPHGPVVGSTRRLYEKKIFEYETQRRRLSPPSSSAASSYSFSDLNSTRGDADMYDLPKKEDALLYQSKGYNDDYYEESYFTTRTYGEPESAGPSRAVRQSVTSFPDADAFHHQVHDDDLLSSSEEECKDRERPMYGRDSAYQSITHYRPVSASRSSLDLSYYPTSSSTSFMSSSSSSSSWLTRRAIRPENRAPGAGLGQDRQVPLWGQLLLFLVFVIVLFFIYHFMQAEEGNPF

[3] = molecular target: T4, human emerin (human), P50402; conditions: remark: other sources report otherwise
T4 chain: T3 sequence

Molecule: human Lamin A (from UniProt P02545 1-664)
binding [1]: binds
binding [2]: binds

B3: Drosophila Lamin C (protein, UniProt Q03427 1-621)
chain: T1 sequence
binding (human emerin (human)): no binding

B4: human Lamin A, P02545 1-664 (protein)
chain: METPSQRRATRSGAQASSTPLSPTRITRLQEKEDLQELNDRLAVYIDRVRSLETENAGLRLRITESEEVVSREVSGIKAAYEAELGDARKTLDSVAKERARLQLELSKVREEFKELKARNTKKEGDLIAAQARLKDLEALLNSKEAALSTALSEKRTLEGELHDLRGQVAKLEAALGEAKKQLQDEMLRRVDAENRLQTMKEELDFQKNIYSEELRETKRRHETRLVEIDNGKQREFESRLADALQELRAQHEDQVEQYKKELEKTYSAKLDNARQSAERNSNLVGAAHEELQQSRIRIDSLSAQLSQLQKQLAAKEAKLRDLEDSLARERDTSRRLLAEKEREMAEMRARMQQQLDEYQELLDIKLALDMEIHAYRKLLEGEEERLRLSPSPTSQRSRGRASSHSSQTQGGGSVTKKRKLESTESRSSFSQHARTSGRVAVEEVDEEGKFVRLRNKSNEDQSMGNWQIKRQNGDDPLLTYRFPPKFTLKAGQVVTIWAAGAGATHSPPTDLVWKAQNTWGCGNSLRTALINSTGEEVAMRKLVRSVTVVEDDEDEDGDDLLHHHHGSHCSSSGDPAEYNLRSRTVLCGTCGQPADKASASGSGAQVGGPISSGSSASSVTVTRSYRSVGGSGGGSFGDNLVTRSYLLGNSSPRTQSPQNCSIM
binding [3]: no binding

B5: Drosophila Barrier-to-Autointegration Factor (protein, UniProt Q9VLU0 1-90)
chain: MSGTSQKHRNFVAEPMGNKSVTELAGIGETLGGRLKDAGFDMAYTVLGQYLVLKKDEELFKDWMKEVCHASSKQASDCYNCLNDWCEEFL
binding (human emerin (human)): binds

More lines, now with the values ahead:

binding [1]: binds
binding [2]: binds
Molecule: human Lamin C (from UniProt P02545-2 1-572)

binding [1]: binds
binding [2]: binds
binding (human emerin (human)): binds
B1: human Lamin B2 (protein, UniProt Q03252 1-620)
chain: MSPPSPGRRREQRRPRAAATMATPLPGRAGGPATPLSPTRLSRLQEKEELRELNDRLAHYIDRVRALELENDRLLLKISEKEEVTTREVSGIKALYESELADARRVLDETARERARLQIEIGKLRAELDEVNKSAKKREGELTVAQGRVKDLESLFHRSEVELAAALSDKRGLESDVAELRAQLAKAEDGHAVAKKQLEKETLMRVDLENRCQSLQEELDFRKSVFEEEVRETRRRHERRLVEVDSSRQQEYDFKMAQALEELRSQHDEQVRLYKLELEQTYQAKLDSAKLSSDQNDKAASAAREELKEARMRLESLSYQLSGLQKQASAAEDRIRELEEAMAGERDKFRKMLDAKEQEMTEMRDVMQQQLAEYQELLDVKLALDMEINAYRKLLEGEEERLKLSPSPSSRVTVSRATSSSSGSLSATGRLGRSKRKRLEVEEPLGSGPSVLGTGTGGSGGFHLAQQASASGSVSIEEIDLEGKFVQLKNNSDKDQSLGNWRIKRQVLEGEEIAYKFTPKYILRAGQMVTVWAAGAGVAHSPPSTLVWKGQSSWGTGESFRTVLVNADGEEVAMRTVKKSSVMRENENGEEEEEEAEFGEEDLFHQQGDPRTTSRGCYVM

binding [3]: no binding
B2: human Lamin C, P02545-2 1-572 (protein)
chain: METPSQRRATRSGAQASSTPLSPTRITRLQEKEDLQELNDRLAVYIDRVRSLETENAGLRLRITESEEVVSREVSGIKAAYEAELGDARKTLDSVAKERARLQLELSKVREEFKELKARNTKKEGDLIAAQARLKDLEALLNSKEAALSTALSEKRTLEGELHDLRGQVAKLEAALGEAKKQLQDEMLRRVDAENRLQTMKEELDFQKNIYSEELRETKRRHETRLVEIDNGKQREFESRLADALQELRAQHEDQVEQYKKELEKTYSAKLDNARQSAERNSNLVGAAHEELQQSRIRIDSLSAQLSQLQKQLAAKEAKLRDLEDSLARERDTSRRLLAEKEREMAEMRARMQQQLDEYQELLDIKLALDMEIHAYRKLLEGEEERLRLSPSPTSQRSRGRASSHSSQTQGGGSVTKKRKLESTESRSSFSQHARTSGRVAVEEVDEEGKFVRLRNKSNEDQSMGNWQIKRQNGDDPLLTYRFPPKFTLKAGQVVTIWAAGAGATHSPPTDLVWKAQNTWGCGNSLRTALINSTGEEVAMRKLVRSVTVVEDDEDEDGDDLLHHHHVSGSRR

Source: paper PMC2762312
